Experimental data published in PubChem BioAssay AID493208 (National Center for Advancing Translational Sciences (NCATS), 2011).
Among all 44,000 compounds or so, about 340 (0.77%) were called active. Another 5% or so got no clear call; they are omitted. Calls come from the whole dose curve; as a rule, active = well fitted inhibition curve with a large enough effect; inconclusive = small, poorly fitted or top-dose-only effect; inactive = flat fitted curve, though single readings scatter. The list shows a part of the results.

Experiment: Acumen qHTS Assay for Inhibitors of the mTORC1 Signaling Pathway in MEF (Tsc2-/-, p53-/-) Cells: Sytravon;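 note: plate controls were DMSO for no effect and rapamycin for full effect; nearly all actives have a fitted effect of over 50% in size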
Details: phospho-rpS6 immunofluorescence/PI, 24 h; series mostly up to 38.3 µM; activity change, negative = inhibition: at the top concentration
In short: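 Immunofluorescence of rpS6 phosphorylation in Tsc2-/-, p53-/- MEFs after 24 h compound exposure, normalized to propidium iodide signal. Activity is expressed as % positive cells, thresholded with 7.5 nM rapamycin.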

Activity change, negative = inhibition, inactive:
COc1ccc(CNC(=O)c2nnn(CC(=O)Nc3cc(C)cc(C)c3)c2N)cc1 0.657%, Cc1ccc(C)c(CN2CCCN(Cc3cc(C)ccc3C)S2(=O)=O)c1 -5.73%, COc1ccccc1C(=O)NC1(C(F)(F)F)C(=O)Nc2c1c(=O)[nH]c(=O)n2CCc1ccccc1 (centres undefined) -14.7%, COC(=O)c1ccc(-n2c(/C=C\c3cccc(Br)c3)nc3ccccc3c2=O)cc1 4.45%, CCc1nc2ccccc2n1CCCCOc1ccccc1C -1.12%, Cc1ccc(S(=O)(=O)C(CNC(=O)C(=O)NCCc2ccccc2)c2ccco2)cc1 (centres undefined) -0.0123%, Cc1ccc(OCc2nc(-c3ccc(C(=O)N4CCN(c5ccc(Cl)cc5)CC4)cc3)oc2C)cc1 -0.703%, Cc1cccc(-c2nc(SCC(=O)Nc3cccc(C(F)(F)F)c3)n3[nH]c(=O)cc3n2)c1 -6.22%, CCOc1ccc(CNC(=O)C2CCCN(S(=O)(=O)c3ccc4c(c3)CCCC(=O)N4)C2)cc1 (centres undefined) 1.46%, CC(C)Oc1ccc(CNC(=O)Cn2c(=O)oc3ccccc32)cc1 -12.8%, Cc1nn(Cc2ccc(Cl)cc2)c(C)c1NC(=O)c1noc2c1CCc1ccccc1-2 0.889%, Cc1cc(C(=O)NCc2ccccc2C)c2c(C)nn(-c3cccc(F)c3)c2n1 -1.59%, CCOC(=O)C1=C(CN2CCN(CC)CC2)NC(=O)NC1c1ccc(Cl)cc1 (centres undefined) -5.52%, CCCCCCn1c(CNC(=O)c2ccccc2)nc2ccccc21 -5.69%, CCCn1c(=O)sc2cc(NC(=O)c3ccccc3OCC)ccc21 -1.1%, O=C(CC1N=C2c3ccccc3N=C(SCc3ccc(F)cc3)N2C1=O)NCc1cccs1 (centres undefined) -6.82%, CCOC(=O)c1scc(-c2ccc(C)cc2)c1S(=O)(=O)Nc1cc(Cl)ccc1OC -10.8%, CCn1c(SCC(=O)c2ccc([N+](=O)[O-])cc2)nnc1-c1ccc(Cl)cc1 0.183%, CCc1ccc(NC(=O)Cn2ncc3c4ccccc4n(C)c3c2=O)cc1 -0.938%, COc1cccc(CNC(=O)Cn2cc3c(n2)-c2c(oc(C(=O)N4CCCC4)c2C)CC3)c1 -4.9%, CCCCn1cc(S(=O)(=O)c2ccc(OC)cc2)c(=O)c2cc(F)c(F)cc21 -7.71%, Clc1cccc(-c2csc(-c3nc(-c4ccc(Br)s4)cs3)n2)c1 -5.12%, CCc1ccc(NC(=O)CSc2nc(-c3ccccc3)c(C#N)c(=O)[nH]2)cc1 -0.602%, COC(=O)Cn1c(CN2CCN(c3ccc(OC)cc3)CC2)nc2c1c(=O)[nH]c(=O)n2C -11%, CCOC(=O)c1c(S(=O)(=O)NCC(=O)Nc2cccc(CC)c2)c(C)n(C)c1C -8.71%, CCOc1ccc(NC(=O)c2cc(S(=O)(=O)NC3CCCC3)ccc2F)cc1 6.31%, COc1ccc(NC(=O)Cn2c(=O)n(-c3ccc(CC(=O)NCC4CCCO4)cc3)c(=O)c3ccccc32)c(OC)c1 (centres undefined) 3.65%, COc1ccc(NC(=O)c2cc3c([nH]c2=O)CC(c2ccccc2)CC3=O)cc1 (centres undefined) 28%, COc1ccc(-c2nn3c(-c4ccc(C)cc4)nnc3c3ccccc23)cc1 -0.562%, COc1cccc(CN2C(=O)c3ccccc3Sc3ccc(C(=O)NCCc4ccc(Cl)cc4)cc32)c1 -7.44%, COc1ccc(C2=Nn3c(nc4sc(C(=O)Nc5cccc(C)c5)c(C)c4c3=O)SC2)cc1 -0.0178%, COc1ccc(NC(=O)c2ccc3c(c2)c(C)c(C)n3Cc2ccc(F)cc2)c(OC)c1 -9.33%, CCc1ccc(OCC(=O)N(Cc2ccco2)Cc2ccco2)cc1 -2.49%, COc1ccccc1NC(=O)CCn1nc(-c2ccccc2)c2ccccc2c1=O -15.3%, O=C(C1CCN(c2nc3ccccc3[nH]2)CC1)N1CCN(c2ccccc2)CC1 -16.4%, Cc1cc(C)cc(OCc2cc(=O)n3cc(C)sc3n2)c1 0.246%, COc1ccccc1N1CCN(c2nc3ccc(C)cc3nc2-n2nc(C)cc2C)CC1 -19.1%, CCCN1CCN(CCCNC(=O)c2ccc3c(c2)sc2nc(-c4ccc(C)cc4)cn23)CC1 4.57%, Cc1cccc(NCc2nnc3n2CCCCC3)c1C 1.77%, CN(C(=O)c1ccc2c(c1)N(Cc1ccccc1F)C(=O)c1ccccc1S2)C1CCCCC1 -0.433%, CCOC(=O)c1c(C)n(-c2ccccc2)c2ccc(OC(=O)c3ccc(OCC)c(OCC)c3)cc12 -3.38%, Cc1cccc(-c2noc(-c3ccc(NCC4CCCO4)c([N+](=O)[O-])c3)n2)c1 (centres undefined) -5.34%, Cc1ccc(-c2nnc(Nc3ccc(Cl)cc3)c3ccccc23)cc1S(=O)(=O)N1CCOCC1 21.9%, CN(C)S(=O)(=O)c1ccc2c(c1)N(CC(=O)N1CCCCC1)CCS2 -0.68%, Cn1cc(S(=O)(=O)c2ccccc2)c(=O)c2cc(F)c(N3CCN(c4ccc(F)cc4)CC3)cc21 -14.7%, O=C(Nc1c(C(=O)N2CCC(N3CCCCC3)CC2)oc2ccccc12)c1c(F)cccc1F -4.06%, COc1ccc(CNC(=O)CCc2nc3cccnc3n2Cc2ccccc2)cc1 -9.77%, Cc1ccc(Cl)cc1N1CCN(C(=O)c2cn(C)c3ccc(S(=O)(=O)N(C)C4CCCCC4)cc3c2=O)CC1 -4.31%, Cc1ccc(NC(=O)Cn2c(=O)n(CCC(=O)NCCc3ccccc3)c(=O)c3ccccc32)cc1 4.79%, O=C(Cn1cnc(S(=O)(=O)N2CCCC2)c1)Nc1ccccc1 1.8%, CC(=O)Nc1ccc(NC(=O)C(Cc2ccccc2)N2Cc3ccccc3C2=O)cc1 (centres undefined) 7.39%, Cc1cccc(N2CCN(C(=O)c3c(C)oc4nc(C)nc(N5CCCC5)c34)CC2C)c1 (centres undefined) 7.32%, Cc1ccc(-n2ncc3c(Nc4cccc(C)c4)ncnc32)cc1 -5.47%, COc1cccc(-n2c(SCC(=O)N3CCCCC3)nc3c([nH]c4ccccc43)c2=O)c1 -11.4%, Cc1ccc(C)c(CN2C(=O)c3ccccc3Sc3ccc(C(=O)NCc4cccs4)cc32)c1 7.2%, CC1CCC(N2CC(=O)N(C3CCCC3)C(c3ccc(Cl)cc3)C2=O)CC1 (centres undefined) 13.5%, CC(=O)c1cccc(NC(=O)c2noc3c2CSc2ccccc2-3)c1 -2.08%, COc1ccc(NC(=O)c2c(N)c(C(=O)c3ccc(C)cc3)n3ccccc23)cc1OC -2.67%, Cc1cc(C)c2c(-n3cccc3)c(C(=O)NCCCN3CCCCC3)sc2n1 0.126%, CCN1CCN(Cc2nc3cc(NC(=O)c4ccccc4[N+](=O)[O-])ccc3n2CC)CC1 -7.73%, Cc1ccc(C)c(NC(=O)C2CCN(c3nn4c(=O)cc(C)nc4s3)CC2)c1 0.527%, O=C(CCc1ccccc1)NCCc1csc(-c2cccc(F)c2)n1 -6.91%, Cc1ccccc1OCCSc1nc(C)c(Cc2ccccc2)c(=O)[nH]1 3.69%, COc1ccc(-c2nn(C)c3sc(C(=O)N4CCN(c5ccccc5F)CC4)cc23)cc1OC -0.184%, COc1cccc(CNC(=O)C(C)n2ccc3cc(S(=O)(=O)N4CCCCCC4)ccc32)c1 (centres undefined) -2.27%, COc1ccccc1-c1cc(NC(=O)COc2ccccc2Cl)n(-c2ccccc2)n1 4.6%, Cc1ccc(-c2[nH]c3ccccc3c2SCCNC(=O)c2ccc(S(=O)(=O)N3CCOCC3)cc2)cc1 1.1%, COc1cccc(CNC(=O)CN2C(=O)CSc3ccc(S(=O)(=O)N(C)C)cc32)c1 0%, Cc1ccc(-c2nc3sccn3c2Nc2ccccc2C)cc1 -3.11%, CC1CCN(C(=O)c2cnn(-c3ccc(Cl)cc3)c2C2CCN(C(=O)OC(C)(C)C)CC2)CC1 4.3%, Cc1c(C(=O)OC2CCCC2)[nH]c2c1C(=O)CC(c1ccc(C(C)(C)C)cc1)C2 (centres undefined) 1.92%, Cc1cc2c(cc3c(SCc4ccc(Cl)cc4)nnc(C)n32)o1 -18.2%, COc1ccc(NC(=O)CSc2oc(-c3ccc(C)cc3)nc2S(=O)(=O)c2ccc(C)cc2)c(OC)c1 -9.16%, CCC(=O)Oc1c(Sc2ccc(Cl)cc2)c(C)nn1C(C)(C)C 7.21%, CCN(CCCNC(=O)c1cc2cc3cc(OC)ccc3nc2s1)c1cccc(C)c1 -1.7%, Cc1cccc(N2CCN(C(=O)c3nn(C)c4c3CSc3ccccc3-4)CC2C)c1 (centres undefined) -9.02%, CCc1cccc(NC(=O)CNS(=O)(=O)c2ccc3nc(C)sc3c2)c1 -9.47%, COc1ccc2c(c1)c1c(c(=O)n(-c3cccc(C)c3)c(=O)n1CC(=O)Nc1c(C)cc(C)cc1C)n2C -1.67%, Cc1cc(C)cc(NC(=O)CN2C(=O)COc3ccc(S(=O)(=O)Nc4ccccc4)cc32)c1 2.2%, Cc1cn(C)c(CC(=O)NCc2ccc(F)cc2)c1C(=O)O -5.63%, CCOC(=O)c1ccccc1NC(=O)CSc1nc2ncccc2o1 2.52%, CCN1CCN(Cc2c(O)ccc3oc(C)c(C(=O)Nc4ccc(OC)c(Cl)c4)c23)CC1 -12.2%, CC1=C(c2ccc(C)cc2)S(=O)(=O)N=C1N1CCN(c2ccccc2)CC1 -0.417%, CCC(C)NC(=O)c1cn(CC)c2ccc(S(=O)(=O)N3CCCCC3)cc2c1=O (centres undefined) -5.46%, Cc1ccc(CSC2=Nc3ccccc3C3=NC(CC(=O)NC4CCCCC4)C(=O)N23)c(C)c1 (centres undefined) 0.833%, Cc1ccc(NS(=O)(=O)c2ccc3c4c(cccc24)C(=O)N3)c(C)c1 2.29%, CCn1cc(C(=O)NCc2ccccc2)c(=O)c2cc(S(=O)(=O)N3CCCCC3)ccc21 -7.26%, Cc1cc(Nc2cccc(C(F)(F)F)c2)ncn1 0.068%, CN(Cc1ccccc1)S(=O)(=O)c1ccc(F)c(C(=O)Nc2ccccc2C(F)(F)F)c1 2.37%, Cc1ccc(C(NC(=O)Cc2cccs2)C(=O)Nc2ccc(C(C)C)cc2)cc1 (centres undefined) -20.1%, Cc1cccc(-c2nc3c4ccccc4nc(NCc4ccccc4Cl)n3n2)c1 -5.57%, O=C(Nc1ccc(N2CCC(N3CCCCC3)CC2)c(C(=O)O)c1)c1ccccc1 0.566%, O=C(COc1ccccc1)N(Cc1cccnc1)c1nc2ccc(Cl)cc2s1 -6.71%, CNS(=O)(=O)c1cn(CC(=O)N2CCN(c3ccc(OC)cc3)CC2)cc1S(=O)(=O)NC -2.35%
